Assay results from patent publication US4122184A, “Benzimidazole insecticides” (priority 1977, dated 1978).
The name of at least one read-out is uncertain.

Experiments:
Mexican Bean Beetle = Mexican Bean Beetle Test; type: in vivo, Epilachna varivestis (Coleoptera); settings: 48 h
Protocol: Cuttings of four six-day old Bountiful snap bean plants containing two leaves with approximately 5 square inches of leaf surface, are placed in water. The leaves are sprayed to wetting with about 5-10 ml. of a formulation containing a pre-determined level of the test compound. Half of the formulation is sprayed on the top surface and half on the bottom surface of the leaf using a DeVilbiss atomizer at 10 psi held at a distance of about 18 inches from the leaf. After the leaves have dried, they are cut from the stem and placed separately in petri dishes. Ten third instar, nonmolting Mexican bean beetle larvae grown on Bountiful snap beans are placed on each leaf. Controls consist of two leaves sprayed with 5 ml. of a 500 ppm malathion formulation (reference standard), two leaves sprayed with the formulation without the active ingredient and two leaves are held as untreated controls. After 48 hours, a mortality count is made and the amount of feeding noted. Moribund larvae are counted as dead.

Melon Aphid = Melon Aphid Test; type: in vivo, Aphis gossypii (Hemiptera); settings: 24 h
Excerpt: Four blue hubbard squash seeds are planted per container in vermiculite and the containers watered from the bottom. After 6 days, the two weakest plants are cut off and one cotyledon and the primary leaves are removed from each of the two remaining plants. The remaining cotyledon is infested with 100 melon aphids from a stock colony by pinning the cotyledon against an aphid-infested squash cotyledon from the colony and allowing the aphids to transfer. After transfer, the colony leaf is removed. Forty-eight hours later, the infested leaves are sprayed to wetting with formulations containing graded amounts of the insecticide using a DeVilbiss atomizer at 10 psi held at 12-15 inches from the plant. Controls consist of two infested, unsprayed squash plants and two infested plants sprayed to wetting with a formulation containing 100 ppm malathion as a reference standard. The mortality is estimated 24 hours after spraying by observation using a 10 power dissecting microscope. The same rating scale is used as before.

Two-spotted Spider Mite = Two-spotted Spider Mite test; type: in vivo, Tetranychus urticae (Acarina); settings: 48 h
Protocol: The procedure in this test is the same as that in the previous aphid test, except that about 100 two-spotted spider mites from a stock colony raised on squash plants are transferred to a cut squash cotyledon. The mortality is estimated 48 hours after spraying. The same rating scale is used.

Milkweed Bug = Milkweed Bug Test; type: in vivo, Oncopeltis fasciatus (Hemiptera); settings: 48 h
Protocol: Ten adult milkweed bugs are chilled and placed in a test cage. The cages containing the bugs are sprayed with 5 ml. of a test formulation containing a pre-determined amount of the insecticide, using a DeVilbiss atomizer at 10 psi held 33 inches from the top of the cage. After the cage has been allowed to dry, the bugs are fed and watered for 48 hours. A formulation containing 500 ppm of malathion is used as a reference standard and two unsprayed cages are kept as controls. Mortality counts are made 48 hours after spraying. Moribund adults are considered dead. The same rating scale is employed as before.

House Fly [1] = assay: Housefly (Contact) Test; type: in vivo, Musca domestica (Diptera); settings: 24 h
Protocol: Rearing cages containing four-day old adult house flies are chilled at 35°-40° F. for about 1 hour. One hundred flies are transferred from the rearing cage to each test cage using a small scoop. The caged flies are kept for 1-2 hours at 70°-80° F. The cages are sprayed in the same manner as described for the milkweed bug with 5 ml. of the test formulation. Two unsprayed cages are held as controls and two cages are sprayed with a 50 ppm DDT formulation as a reference standard. Mortality counts are made 24 hours after spraying. […] The same rating scale is employed as heretofore.

House Fly [2] = assay: Housefly (Stomach) Test; type: in vivo, Musca domestica (Diptera); settings: 24 h
Protocol: Ten chilled house flies are taken from the rearing cage and placed in a covered petri dish. Sugar cubes treated with 0.2 ml. of a formulation containing a specified level of the insecticide are placed in the petri dish one hour after the flies have been removed from the chill room. Controls consist of sugar cubes treated with 0.2 ml. of deionized water and cubes treated with 0.2 ml. of a formulation containing 500 ppm of malathion. Mortality counts are made 24 hours later. The same rating scale is used as before.

Oriental Cockroach = assay: Oriental Roach Test; type: in vivo, Blatta orientalis (Orthoptera); settings: 24 h
Protocol: A rearing pan of late instar (3-4 months old) roaches is placed in a cold room for about 1 hour. Ten nymphs are taken from the pan and placed in each cage and the caged insects are kept at 70°-80° F. for 1 hour. The test cages are then sprayed in the manner indicated above in the milkweed bug test using 5 ml. of a formulation containing a specified amount of the insecticide. The test cages are held for 72 hours during which time the cockroaches are neither fed nor watered. Controls consist of 2 unsprayed cages, two cages sprayed with the formulation alone and 2 cages with a formulation containing 1000 ppm of heptachlor. Mortality counts are made 24 hours after spraying by shaking the cages lightly. All cockroaches remaining in the bottom are counted as dead.

Boll Weevil = Boll Weevil Test; type: in vivo, Anthonomus grandis (Coleoptera); settings: 48 h
Excerpt: The procedure is identical to that employed for the Mexican bean beetle and the Southern armyworm, except that 10 adult boll weevils are placed on cotton leaves that have been dipped into formulations of the test compounds. The same rating scale is used.

SMILES	mortality rating (Mexican Bean Beetle; 10 ppm)	mortality rating (Mexican Bean Beetle; 25 ppm)	mortality rating (Mexican Bean Beetle; 100 ppm)	mortality rating (Mexican Bean Beetle; 250 ppm)	mortality rating (Mexican Bean Beetle; 500 ppm)	mortality rating (Melon Aphid; 50 ppm)	mortality rating (Melon Aphid; 100 ppm)	mortality rating (Melon Aphid; 500 ppm)	mortality rating (Two-spotted Spider Mite; 10 ppm)	mortality rating (Two-spotted Spider Mite; 25 ppm)	mortality rating (Two-spotted Spider Mite; 50 ppm)	mortality rating (Two-spotted Spider Mite; 100 ppm)	mortality rating (Two-spotted Spider Mite; 250 ppm)	mortality rating (Milkweed Bug; 10 ppm)	mortality rating (Milkweed Bug; 25 ppm)	mortality rating (Milkweed Bug; 50 ppm)	mortality rating (Milkweed Bug; 250 ppm)	mortality rating (Milkweed Bug; 500 ppm)	mortality rating (House Fly [1]; 10 ppm)	mortality rating (House Fly [1]; 25 ppm)	other results
O=[N+]([O-])c1cc(C(F)(F)F)cc2[nH]c(C(F)(F)Cl)nc12 [L, 2-chlorodifluoromethyl-4-nitro-6-trifluoromethylbenzimidazole]	7 (71-80)	9 (91-100)	9 (91-100)	9 (91-100)	9 (91-100)	6 (61-70)	9 (91-100)	9 (91-100)	8 (81-90)	9 (91-100)	9 (91-100)	9 (91-100)	9 (91-100)	0 (0-10)	0 (0-10)	6 (61-70)	9 (91-100)	9 (91-100)	1 (11-20)	9 (91-100)	mortality rating (Mexican Bean Beetle; 5 ppm): 4 (41-50); mortality rating (Melon Aphid; 10 ppm): 0 (0-10); mortality rating (Melon Aphid; 250 ppm): 9 (91-100); mortality rating (Two-spotted Spider Mite; 1 ppm): 0 (0-10); mortality rating (Two-spotted Spider Mite; 500 ppm): 9 (91-100); mortality rating (House Fly [1]; 50 ppm): 9 (91-100); mortality rating (House Fly [1]; 100 ppm): 9 (91-100); mortality rating (House Fly [1]; 250 ppm): 9 (91-100); mortality rating (House Fly [1]; 500 ppm): 9 (91-100); mortality rating (House Fly [2]; 100 ppm): 7 (71-80); mortality rating (House Fly [2]; 250 ppm): 9 (91-100); mortality rating (House Fly [2]; 500 ppm): 9 (91-100); mortality rating (Oriental Cockroach; 50 ppm): 0 (0-10); mortality rating (Oriental Cockroach; 100 ppm): 0 (0-10); mortality rating (Oriental Cockroach; 250 ppm): 1 (11-20); mortality rating (Boll Weevil; 50 ppm): 9 (91-100); mortality rating (Boll Weevil; 100 ppm): 9 (91-100); mortality rating (Boll Weevil; 250 ppm): 9 (91-100); mortality rating (Boll Weevil; 500 ppm): 9 (91-100)
CCOC(=O)CC(SP(=S)(OC)OC)C(=O)OCC (centres unmarked) [Malathion, reference compound]						8 (81-90)															
O=C(Oc1ccc([N+](=O)[O-])cc1)n1c(C(F)(F)F)nc2c([N+](=O)[O-])cc(C(F)(F)F)cc21 [N, p-nitrophenyl-4-nitro-2,6-bis(trifluoromethyl)-1-benzimidazolecarboxylate]	4 (41-50)	7 (71-80)	9 (91-100)	9 (91-100)	9 (91-100)	0 (0-10)	1 (11-20)	9 (91-100)	6 (61-70)	9 (91-100)	8 (81-90)	8 (81-90)	8 (81-90)	0 (0-10)	0 (0-10)	1 (11-20)	9 (91-100)	9 (91-100)	1 (11-20)	8 (81-90)	mortality rating (Mexican Bean Beetle; 50 ppm): 9 (91-100); mortality rating (Mexican Bean Beetle; 1000 ppm): 9 (91-100); mortality rating (Melon Aphid; 1000 ppm): 9 (91-100); mortality rating (Two-spotted Spider Mite; 1000 ppm): 9 (91-100); mortality rating (Milkweed Bug; 100 ppm): 7 (71-80); mortality rating (Milkweed Bug; 1000 ppm): 8 (81-90); mortality rating (House Fly [1]; 50 ppm): 9 (91-100); mortality rating (House Fly [1]; 100 ppm): 9 (91-100); mortality rating (House Fly [1]; 250 ppm): 9 (91-100); mortality rating (House Fly [1]; 500 ppm): 9 (91-100); mortality rating (House Fly [1]; 1000 ppm): 9 (91-100); mortality rating (House Fly [2]; 50 ppm): 0 (0-10); mortality rating (House Fly [2]; 100 ppm): 0 (0-10); mortality rating (House Fly [2]; 250 ppm): 9 (91-100); mortality rating (House Fly [2]; 500 ppm): 9 (91-100); mortality rating (House Fly [2]; 1000 ppm): 9 (91-100); mortality rating (Oriental Cockroach; 50 ppm): 0 (0-10); mortality rating (Oriental Cockroach; 100 ppm): 0 (0-10); mortality rating (Oriental Cockroach; 250 ppm): 0 (0-10); mortality rating (Boll Weevil; 1000 ppm): 9 (91-100)
